Assay results taken from PubChem BioAssay AID1240 (Sanford-Burnham Center for Chemical Genomics, 2008).
Screen size: about 50,000 compounds; about 800 (1.6%) showed an effect of 50% or more. The list shows a part of the results.

Each compound was assayed against Bcl-2-like protein 10 (Homo sapiens) (UniProt Q9HD36) (assay: Phenotype converters, Bcl-B/TR3 peptide binding displacement, primary biochemical FP (AID 1240;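 also: 0% = Bcl-B with tracer peptide and DMSO and 100% = tracer peptide lacking Bcl-B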)). Settings: GST-Bcl-B / FITC-TR3 peptide fluorescence polarization; stronger effect = higher value; compound at 3.75 mg/L.
Chain of UniProt Q9HD36 (Q9HD36 whole entry, looked up): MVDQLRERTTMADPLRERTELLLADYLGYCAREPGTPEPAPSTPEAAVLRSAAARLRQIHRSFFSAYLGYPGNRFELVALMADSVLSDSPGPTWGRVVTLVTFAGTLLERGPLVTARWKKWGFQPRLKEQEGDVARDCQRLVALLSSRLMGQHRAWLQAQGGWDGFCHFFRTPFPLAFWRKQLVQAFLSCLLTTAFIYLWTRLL

| SMILES | displacement [%] |
| --- | --- |
| Cc1ccc(N=Cc2ccccc2O)cc1F | -8.4 |
| O=C(O)CC1S/C(=N\N=C\c2ccc(N3CCOCC3)cc2)NC1=O (configuration not stated) | -4.3 |
| CCCCNC(=O)c1cc2ncc(Br)cn2n1 | 20 |
| COc1cc(C(=O)Nc2ccc(C(N)=O)cc2)c([N+](=O)[O-])cc1OC | 6.6 |
| CC(NC(=O)c1cccs1)c1ccccc1 (configuration not stated) | 8.2 |
| O=C(NCCN1CCOCC1)Nc1ccc(Cl)cc1 | 9 |
| Cc1ccc(Cl)cc1N1C(=O)C2C(c3ccc(Cl)cc3)OC3(C(=O)c4ccccc4C3=O)C2C1=O (configuration not stated) | -0.2 |
| CC1(C)CC(=O)C2=C(C1)Nc1[nH]c(=O)[nH]c(=O)c1C2c1ccc(O)cc1 (configuration not stated) | -1.5 |
| C=CCc1c(C)nc2cc(-c3cccc(C)c3)[nH]n2c1=O | 10.4 |
| CC(=O)C(C(C)=O)c1cc(NS(=O)(=O)c2ccc(C)cc2)c2ccccc2c1O | 3.6 |
| O=C(O)c1ccc(NC2=NS(=O)(=O)c3ccccc32)cc1 | -8 |
| O=C(O)COc1ccccc1/C=N/NC(=O)Cn1nnc(-c2ccccc2Cl)n1 | -1.4 |
| Cc1cccn2c(=O)c(/C=C3\SC(=S)NC3=O)c(NCCCn3ccnc3)nc12 | 2.5 |
| O=C(O)C1CCCCC1C(=O)Nc1cccc([N+](=O)[O-])c1 (configuration not stated) | -8.5 |
| Cn1cc(/C=C/c2nc3ccccc3c(=O)n2-c2cccc([N+](=O)[O-])c2)c2ccccc21 | -10.1 |
| CC1(C)CC(NS(=O)(=O)c2ccc(Cl)cc2)CC(C)(C)N1 | 12.7 |
| COc1ccc(/C=N/N=C(N)N)cc1 | -1.8 |
| CC1CCN(CCC(=O)N/N=C/c2c[nH]c3ccccc23)CC1 | -2.4 |
| O=C(CN(c1cccc(Cl)c1)S(=O)(=O)c1ccccc1)NCc1ccncc1 | 1 |
| O=C(O)c1cc(Br)ccc1NC(=O)C1CCCCC1 | 2.6 |
| Cc1ccc(CNC(=O)C(=O)NCc2cccnc2)cc1 | 6.6 |
| CCN(C(=O)CN1C(=O)c2ccccc2C1=O)c1ccccc1C | 9.1 |
| CCOC(=O)C1=C(C)NC2=C(C(=O)CCC2)C1c1ccc(N(CC)CC)cc1 (configuration not stated) | -2.1 |
| CC1C(c2ccccc2)=[N+]([O-])C(C)(c2cccs2)N1O (configuration not stated) | 9.1 |

| SMILES | displacement [%] |
| --- | --- |
| CCOc1cc(/C=N/NC(=O)C(=O)Nc2cccc(OC)c2)ccc1O | 9.8 |
| O=C(CCCCC(=O)NN=Cc1cc(Br)ccc1O)NN=Cc1cc(Br)ccc1O | 9.4 |
| CCn1cc(/C=C2\C(=O)NC(=O)N(c3ccc(Cl)cc3)C2=O)c2ccccc21 | -18.6 |
| Cn1cnnc1SCc1ccccc1 | 18.6 |
| COc1cc(C(=O)Nc2cccc(S(N)(=O)=O)c2)ccc1OCc1ccc(Cl)cc1 | -7.2 |
| CCOc1cc(C=C2C(=O)NC(=S)N(CC)C2=O)ccc1O | 7.3 |
| NC(=O)c1ccc(CN2CCN(Cc3ccccc3)CC2)cc1 | 5.9 |
| Cc1cccc(N2C(=O)/C(=C/c3ccc(C(C)C)cc3)SC2=S)c1 | -7.3 |
| O=C(CSc1nc2ccccc2o1)c1ccc(Cl)cc1Cl | -0.9 |
| C=COCn1c2ccc(Cl)cc2c2cc(Cl)ccc21 | -9.3 |
| O=[N+]([O-])c1ccccc1S(=O)(=O)NCCSc1ccccn1 | -4.4 |
| CN1C(=O)/C(=C\c2cn(Cc3ccccc3)c3ccccc23)SC1=S | 8.3 |
| Cc1ccc(N2C(=O)C3C(C2=O)C2C=CC3C23CC3)cc1Br (configuration not stated) | 6.6 |
| CCOC(=O)C(CCCOc1ccc(C)cc1C)C(=O)OCC | -7.3 |
| COc1cc(/C=C2\SC(=N)N(c3ccc(F)cc3)C2=O)ccc1O | -13.9 |
| COc1ccc(CCNC(=O)COc2cccc(C)c2)cc1 | -8.1 |
| COc1ccc2ccccc2c1C=Nc1ccc(S(N)(=O)=O)cc1 | -4.7 |
| CC(C)(C)NCCN1CCn2c1nc1ccccc12 | -2.7 |
| CC(C)N1C(C)CC(O)N1C(=O)CC#N (configuration not stated) | -8.4 |
| Oc1c(C=NCc2ccncc2)sc2ccccc12 | -22.4 |
| CN(C)c1ccnc2sc(C(=O)c3ccccc3)c(N)c12 | 4.7 |
| S=C(c1ccc(-c2ccc(Cl)c(Cl)c2)o1)N1CCN(c2ccccc2)CC1 | 7.7 |
| CC(=O)c1c(C)nc(-c2ccccc2)nc1NC(=O)Cc1ccccc1 | -17.7 |
| Cc1nc(N/N=C/c2ccc(N(C)C)cc2)cc(-c2ccccc2)n1 | -14.2 |

| SMILES | displacement [%] |
| --- | --- |
| O=C(O)COc1ccc(N2C(=O)c3ccc([N+](=O)[O-])cc3C2=O)cc1 | -4.1 |
| CN(CC(=O)N1c2ccc(Cl)cc2NC(=O)c2ccccc21)CC(O)c1ccccc1 (configuration not stated) | -3.3 |
| O=C(C1CCCCC1)N1CCN=C1c1ccccc1 | -1 |
| COc1cc(OC)c(OC)cc1C=C1C(=O)N(C)C(=O)N(C)C1=O | 15.5 |
| Cc1cccc(NC(=O)/C=C/c2ccc3c(c2)OCO3)n1 | 1.4 |
| COc1ccc(C2C3=C(CC(C)(C)CC3=O)Nc3nc(SC)[nH]c(=O)c32)cc1 (configuration not stated) | -7.7 |
| Cc1[nH]c2c(Cl)cccc2c(=O)c1CN1CCCC1 | 7.3 |
| N#Cc1cc2c(nc1SCC(=O)Nc1ccc(S(N)(=O)=O)cc1)CCCCC2 | -1.5 |
| CCCOC(=O)c1c(NC(=O)c2cnccn2)sc2c1CCC(C)C2 (configuration not stated) | -7.5 |
| O=C(NC(=S)Nc1ccccc1)c1ccc(Cl)cc1 | -8 |
| CC1CN(c2c(Cl)cccc2[N+](=O)[O-])CCN1S(C)(=O)=O (configuration not stated) | 14.6 |
| COc1ccc(C2(CNC(=O)C(c3ccccc3)c3ccccc3)CCOCC2)cc1OC | -7.1 |
| Cc1ccc2nc(SCCN3CCOCC3)[nH]c2c1 | -1.3 |
| COc1ccc(N(CC(=O)Nc2ccc(C(C)C)cc2)S(=O)(=O)c2ccccc2)cc1 | 11.7 |
| Cc1ccc(C)c(OCCCCN2CCOCC2)c1C | 3.2 |
| COc1ccc(/C(N)=N/OC(=O)c2ccc(F)cc2)cc1 | 9.6 |
| O=C(CN(CCc1ccccc1)S(=O)(=O)c1ccccc1)Nc1ccc(Br)cc1 | -2.3 |
| Cc1cc(Cl)ccc1OCC(=O)NNC(=O)c1cccs1 | -7.3 |
| COc1cc(/C=N/NS(=O)(=O)c2ccc3ccccc3c2)ccc1OCCN1CCOCC1 | -2 |
| Cc1ccc(C(C)(C)C)c(OCC(=O)Nc2ccc(C(=O)O)cc2)c1 | -4 |
| CCOC(=O)c1ccc[n+](CC(=O)c2cc3ccccc3oc2=O)c1 | 8.8 |
| Cc1n[nH]c(C)c1Sc1ccccc1N=Cc1ccc(C(=O)O)cc1 | 7.8 |
| COc1cccc(/C=C2\SC(=Nc3cccc(Cl)c3Cl)NC2=O)c1 | 13 |
| CCCC(C)NS(=O)(=O)c1ccc(OC)cc1 (configuration not stated) | 1.1 |
